Laboratory results from paper PMC4336329 (PLoS ONE, 2015).
Out of some 310,000 compounds screened, about 14,000 (4.5%) showed an effect of 50% or more. The effect is printed as a negative number. Some of the results follow.

Target: human ether-à-go-go-related gene (hERG) potassium channel (human, UniProt Q12809)
Assay: primary screen, population patch clamp on CHO cells stably expressing hERG
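Also: peak tail current of the secondary pulse compared with the same well before compound.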

Chain of human ether-à-go-go-related gene (hERG) potassium channel (Q12809 whole entry, looked up): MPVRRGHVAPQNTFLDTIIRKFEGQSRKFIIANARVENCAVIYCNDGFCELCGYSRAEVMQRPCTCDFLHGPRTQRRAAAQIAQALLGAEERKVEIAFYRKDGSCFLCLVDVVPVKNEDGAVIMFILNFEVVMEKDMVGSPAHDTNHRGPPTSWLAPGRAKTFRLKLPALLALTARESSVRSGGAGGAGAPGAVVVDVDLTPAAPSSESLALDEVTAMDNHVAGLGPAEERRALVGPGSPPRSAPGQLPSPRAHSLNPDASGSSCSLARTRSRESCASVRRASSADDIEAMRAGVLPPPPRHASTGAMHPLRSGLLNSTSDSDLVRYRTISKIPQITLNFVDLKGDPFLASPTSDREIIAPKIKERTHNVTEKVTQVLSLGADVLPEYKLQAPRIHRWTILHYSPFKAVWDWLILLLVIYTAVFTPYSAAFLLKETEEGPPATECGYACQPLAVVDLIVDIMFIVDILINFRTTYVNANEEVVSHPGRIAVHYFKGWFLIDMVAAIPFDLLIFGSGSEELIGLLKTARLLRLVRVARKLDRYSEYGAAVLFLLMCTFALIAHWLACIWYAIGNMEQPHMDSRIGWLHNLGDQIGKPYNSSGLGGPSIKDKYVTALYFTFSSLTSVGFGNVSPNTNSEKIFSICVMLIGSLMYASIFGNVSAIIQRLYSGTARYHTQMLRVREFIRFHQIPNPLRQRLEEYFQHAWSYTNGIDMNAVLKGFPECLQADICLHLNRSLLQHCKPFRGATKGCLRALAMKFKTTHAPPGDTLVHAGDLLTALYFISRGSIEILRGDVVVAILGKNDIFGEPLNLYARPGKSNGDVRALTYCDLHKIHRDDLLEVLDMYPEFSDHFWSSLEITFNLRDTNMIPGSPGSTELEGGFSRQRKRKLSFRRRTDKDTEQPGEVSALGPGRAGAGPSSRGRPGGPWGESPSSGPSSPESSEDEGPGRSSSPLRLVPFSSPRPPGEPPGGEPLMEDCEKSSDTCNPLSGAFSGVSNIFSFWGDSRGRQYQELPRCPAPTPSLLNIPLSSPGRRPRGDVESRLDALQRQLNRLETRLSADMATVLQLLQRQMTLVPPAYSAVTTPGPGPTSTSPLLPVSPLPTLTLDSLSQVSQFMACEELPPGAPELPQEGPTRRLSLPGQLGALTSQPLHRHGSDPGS

| SMILES | hERG current change (%, negative = inhibition) at 10uM |
| --- | --- |
| Cc1nnc(SCc2cc(=O)[nH]c(N3CCN(C)CC3)n2)s1 | -4.73% |
| CCCSc1ccc(C(=O)Nc2ccc(Cl)cc2)cn1 | 11.6% |
| Cn1ncn2c(=O)c3c(nc12)-c1ccccc1CC31CCCC1 | 1.56% |
| CC(=O)Nc1cccc(NC(=O)CSc2ccc(C(F)(F)F)cc2[N+](=O)[O-])c1 | 2.3% |
| O=C(NCCOc1nc(N2CCCCC2)nc(N2CCOCC2)n1)Nc1ccccc1 | -0.098% |
| CC(C)(C)CN1CCNC(=O)C1CC(=O)NCCc1ccccc1C(F)(F)F (stereo not drawn) | -13.3% |
| CC(C)CN1C(=O)c2ccc(NC(=O)c3cccs3)cc2C1=O | -5.23% |
| O=S(=O)(NN1CCOCC1)c1ccc(Cl)s1 | 4.37% |
| Cc1c(C)n(-c2ccccc2)c2ncnc(NCCCN(C)C)c12 | 0.841% |
| FC(F)(F)c1cccc(NC(=S)NCC2COc3ccccc3O2)c1 (stereo not drawn) | 9.16% |
| CCOc1ccc(N(CC(=O)Nc2cccc(N(C)S(C)(=O)=O)c2)S(=O)(=O)c2ccccc2)cc1 | -2.52% |
| Cc1cccc(NC(=S)NNc2ncc(C(F)(F)F)cc2Cl)c1 | 4.55% |
| COc1ccc(-c2ccc(SCC(=O)c3ccccc3)nn2)cc1OC | -15.7% |
| NNC(=S)Nc1cccc(-c2n[nH]c(=S)o2)c1 | 13.8% |
| O=[N+]([O-])c1cc([N+](=O)[O-])c(Oc2cccc(Cl)c2Cl)cc1NN1CCCCC1 | 9.77% |
| CCn1cc(/C=C(\NC(=O)c2ccccc2Cl)C(=O)NCCN2CCOCC2)c2ccccc21 | -2.69% |
| Cc1ccc(S(=O)(=O)N2CCN(C(=O)CCC(=O)NCCc3ccc(F)cc3)CC2)cc1 | -34.2% |
| NS(=O)(=O)c1cccc(NC(=O)CC2(CC(=O)O)CCCC2)c1 | 33.9% |
| CCOc1ccc(C(=O)NCC(=O)Nc2ccc(N3CCOCC3)cc2)cc1OCC | -1.2% |
| Cc1oc(C(=O)O)cc1COc1ccc2c(C)cc(=O)oc2c1 | 1.72% |
| COc1ccc(N2CCN(C(=O)c3ccccc3NS(=O)(=O)c3ccc(C)cc3)CC2)cc1 | -0.438% |

| SMILES | hERG current change (%, negative = inhibition) at 10uM |
| --- | --- |
| CC(O)CNCc1ccc(-c2ccccc2)cc1.Cl (stereo not drawn) | -0.602% |
| COc1ccc(/C=C(/NC(=O)c2ccc(C)cc2)C(=O)N2CCCC2)cc1OC | -19% |
| CCOc1ccc(CCNC(=O)Nc2ccccc2C)cc1OCC | 5.4% |
| CCOC(=O)C1(C(F)(F)F)N=C(C(F)(F)F)Nc2ccc(F)cc21 (stereo not drawn) | -0.636% |
| CN(C)c1ccc(/C=C2\C(=N)N3N=C(CC(=O)N4CCCC4)SC3=NC2=O)cc1Br | 4.09% |
| O=C(O)CCN1C(=O)C2C3c4ccccc4C(c4ccccc43)C2C1=O (stereo not drawn) | 7.11% |
| COc1ccccc1NC(=O)/C=C/c1ccc2c(c1)OCO2 | -8.32% |
| CCN(C(=O)COC(=O)CN(C)S(=O)(=O)c1ccc(NC(C)=O)cc1)C1CCS(=O)(=O)C1 (stereo not drawn) | 15.7% |
| C#CCOCCOCCOCCNc1nc(N2CCOCC2)nc(N2CCN(C(=O)[C@H](Cc3ccc(O)cc3)n3cc([C@@H](N)C(C)CC)nn3)CC2)n1.Cl (stereo partly drawn) | 10.1% |
| O=C(COC(=O)c1cccnc1Cl)c1ccc2c(c1)OCCO2 | -2.77% |
| C#CCNC(=O)C1=C[C@H](c2csc3ccccc23)C[C@H](OCc2ccc(CO)cc2)O1 | -10.1% |
| O=C(Cc1ccccc1[N+](=O)[O-])NNC(=O)Nc1ccc2c(c1)OCO2 | 1.25% |
| Cc1ccccc1NC(=O)Cn1nnc2ccccc21 | -12% |
| O=C1C2ON(c3ccccc3)C(c3cccnc3)C2C(=O)N1Cc1ccccc1 (stereo not drawn) | -50.8% |
| CN(C(=O)/C=C/c1ccc2c(c1)OCO2)c1ccccc1 | -4.59% |
| O=C(Cn1c(=S)[nH]c2ccccc2c1=O)N1CCc2ccccc2C1 | 17.3% |
| CCOc1ccc2nc(NC(=O)C3CCCN(S(=O)(=O)c4cccc5nonc45)C3)sc2c1 (stereo not drawn) | -4.36% |
| COc1c2c(cc3oc(=O)c4c5ccc(O)cc5oc4c13)OC(C)(C)CC2 | 19.8% |
| COc1ccccc1CNC(=O)[C@@H]1CCCN1S(=O)(=O)c1ccc(C)cc1 | -10.4% |
| O=C(NNC(=O)c1ccc(Oc2ccc(C3SCCS3)cc2)o1)c1ccc(Cl)cc1 | 8.53% |
| O=C1OC(N2C(=O)CC[C@H]2C(=O)Nc2ccc3c(c2)OCO3)c2ccccc21 (stereo partly drawn) | 2.99% |
